The source of these data is publication PMC12668182.

The chains behind the UniProt entries cited, without tags or fusion partners. Where a name states a change or a piece, a line headed by the entry shows the natural chain unless it says otherwise. A line that says so, or that is headed by a name, gives the form on record, which may keep a tag or linker.
UniProt Q03468: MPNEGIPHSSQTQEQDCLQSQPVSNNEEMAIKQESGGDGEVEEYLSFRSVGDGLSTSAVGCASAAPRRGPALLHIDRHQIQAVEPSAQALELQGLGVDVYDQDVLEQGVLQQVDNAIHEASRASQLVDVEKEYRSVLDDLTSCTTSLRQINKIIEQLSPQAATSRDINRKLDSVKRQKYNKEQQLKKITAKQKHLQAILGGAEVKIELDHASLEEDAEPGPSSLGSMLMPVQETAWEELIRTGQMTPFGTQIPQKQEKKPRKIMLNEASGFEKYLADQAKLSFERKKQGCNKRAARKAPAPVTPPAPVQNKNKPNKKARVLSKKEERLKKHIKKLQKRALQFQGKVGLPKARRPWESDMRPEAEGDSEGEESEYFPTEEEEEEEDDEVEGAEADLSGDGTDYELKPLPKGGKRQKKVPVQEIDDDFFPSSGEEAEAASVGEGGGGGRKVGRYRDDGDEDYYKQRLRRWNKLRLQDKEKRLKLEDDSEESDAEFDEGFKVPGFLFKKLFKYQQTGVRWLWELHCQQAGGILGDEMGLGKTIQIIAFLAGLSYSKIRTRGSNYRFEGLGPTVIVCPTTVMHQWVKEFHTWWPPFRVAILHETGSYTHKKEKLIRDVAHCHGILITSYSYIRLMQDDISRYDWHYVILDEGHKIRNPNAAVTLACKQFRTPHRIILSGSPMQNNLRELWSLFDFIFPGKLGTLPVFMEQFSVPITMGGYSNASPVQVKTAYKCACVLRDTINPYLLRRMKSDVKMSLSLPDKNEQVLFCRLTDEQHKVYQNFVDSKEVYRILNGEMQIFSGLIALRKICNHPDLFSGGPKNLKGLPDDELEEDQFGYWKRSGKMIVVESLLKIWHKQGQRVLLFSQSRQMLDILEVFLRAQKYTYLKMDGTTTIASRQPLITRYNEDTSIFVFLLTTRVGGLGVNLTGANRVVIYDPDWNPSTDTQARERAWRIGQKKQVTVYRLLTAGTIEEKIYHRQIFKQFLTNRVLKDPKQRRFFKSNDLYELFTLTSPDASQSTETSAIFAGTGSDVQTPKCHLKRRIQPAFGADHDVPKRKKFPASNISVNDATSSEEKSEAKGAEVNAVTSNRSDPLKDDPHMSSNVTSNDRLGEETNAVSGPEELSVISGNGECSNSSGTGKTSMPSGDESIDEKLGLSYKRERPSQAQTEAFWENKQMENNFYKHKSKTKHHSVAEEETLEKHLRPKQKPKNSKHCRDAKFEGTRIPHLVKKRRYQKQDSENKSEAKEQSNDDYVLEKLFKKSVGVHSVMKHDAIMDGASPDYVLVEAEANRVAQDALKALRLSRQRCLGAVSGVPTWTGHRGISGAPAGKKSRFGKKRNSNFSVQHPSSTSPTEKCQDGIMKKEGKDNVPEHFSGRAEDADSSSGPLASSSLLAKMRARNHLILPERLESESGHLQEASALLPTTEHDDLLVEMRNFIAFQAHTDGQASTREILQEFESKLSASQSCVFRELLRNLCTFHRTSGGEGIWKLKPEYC
CSB-WHD (a.a. 1424-1493) with T1447A substitution (Q03468, form named): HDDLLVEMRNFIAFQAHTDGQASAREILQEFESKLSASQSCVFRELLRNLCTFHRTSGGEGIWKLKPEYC

The target of assay [1] is T1, N-Avi-Biotin-SNM1A (a.a. 698-1040), wild type (human) (UniProt Q6PJP8).
T1 sequence (chain, biotin on the N-terminal Avi tag): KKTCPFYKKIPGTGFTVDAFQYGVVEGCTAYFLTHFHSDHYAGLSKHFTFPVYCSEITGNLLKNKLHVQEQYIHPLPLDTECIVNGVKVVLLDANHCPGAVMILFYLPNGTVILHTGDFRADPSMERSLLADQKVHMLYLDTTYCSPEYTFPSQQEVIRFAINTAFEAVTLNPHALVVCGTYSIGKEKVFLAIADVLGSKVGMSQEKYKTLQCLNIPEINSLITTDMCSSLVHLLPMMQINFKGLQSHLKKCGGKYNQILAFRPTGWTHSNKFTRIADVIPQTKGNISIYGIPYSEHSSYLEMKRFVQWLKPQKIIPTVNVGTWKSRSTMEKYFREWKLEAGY
Kind of assay: condition: dilutions starting from 500 nM or 1 uM (methods); SPR; single-cycle; SNM1A immobilised via biotinylated N-terminal Avi tag on a Series S SA surface (~4000 RU); CSB constructs as analytes, 5 or 6 two-fold dilutions from 500 nM or 1 uM; 20 mM HEPES pH 7.5, 150 mM NaCl, 0.5 mM TCEP; 1:1 Langmuir fit; apparent KD; both purified.

Assay [2] addresses T2, GFP-tagged SNM1A, full-length construct, nuclease-dead variant D736A (human) (UniProt Q6PJP8).
T2 sequence: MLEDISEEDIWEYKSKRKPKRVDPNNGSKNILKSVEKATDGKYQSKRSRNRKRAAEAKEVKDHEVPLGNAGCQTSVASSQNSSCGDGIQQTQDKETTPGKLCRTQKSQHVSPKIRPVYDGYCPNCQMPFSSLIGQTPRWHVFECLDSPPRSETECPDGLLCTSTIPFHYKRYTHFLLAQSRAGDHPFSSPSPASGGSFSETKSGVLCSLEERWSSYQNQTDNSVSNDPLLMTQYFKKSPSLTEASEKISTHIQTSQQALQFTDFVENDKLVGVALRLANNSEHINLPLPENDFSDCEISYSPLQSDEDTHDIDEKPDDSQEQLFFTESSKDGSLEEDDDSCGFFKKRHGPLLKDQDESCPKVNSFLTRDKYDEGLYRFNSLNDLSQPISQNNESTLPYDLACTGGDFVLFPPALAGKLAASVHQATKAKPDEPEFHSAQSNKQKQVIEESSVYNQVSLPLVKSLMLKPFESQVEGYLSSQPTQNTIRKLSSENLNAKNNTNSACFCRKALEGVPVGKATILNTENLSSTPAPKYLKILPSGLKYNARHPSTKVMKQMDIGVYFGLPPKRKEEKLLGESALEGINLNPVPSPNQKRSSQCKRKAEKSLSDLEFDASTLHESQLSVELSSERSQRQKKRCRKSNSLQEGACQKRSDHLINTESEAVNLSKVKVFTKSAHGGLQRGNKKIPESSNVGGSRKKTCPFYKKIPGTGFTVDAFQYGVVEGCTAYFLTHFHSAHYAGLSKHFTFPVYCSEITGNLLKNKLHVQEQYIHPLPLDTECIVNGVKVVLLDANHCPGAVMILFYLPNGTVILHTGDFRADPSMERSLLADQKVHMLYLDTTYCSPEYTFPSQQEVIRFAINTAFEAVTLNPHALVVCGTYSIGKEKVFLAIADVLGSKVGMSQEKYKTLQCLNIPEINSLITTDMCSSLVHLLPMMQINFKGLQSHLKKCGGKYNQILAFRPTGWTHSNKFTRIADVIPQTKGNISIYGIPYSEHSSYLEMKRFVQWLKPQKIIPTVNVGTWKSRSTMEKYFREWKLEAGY
Kind of assay: co-IP; GFP-Trap magnetic agarose on RIPA lysates (with Benzonase) of HEK293 FT cells transfected with GFP-tagged SNM1A or CSB; washes with 150, 250 and 500 mM NaCl; Western blot.

Assay [3] addresses T3, GFP-tagged SNM1A, full-length construct, E864A (human) (UniProt Q6PJP8).
T3 sequence: T2 sequence with A736D, E864A
Described as above.

In assay [4] the target is T4, GFP-tagged SNM1A, full-length construct, WT (human) (UniProt Q6PJP8).
T4 sequence: T2 sequence with A736D
The assay is described as above.

The target of assay [5] is CSB lacking the C-terminal domain (DC-CSB, a.a. 1-1014) (human) (UniProt Q03468). Nature of the assay: mass photometry; CSB variants alone; 50 mM HEPES pH 7.5, 300 mM NaCl, 0.5 mM TCEP; results say 200 nM, methods say 2 uM diluted to 20 nM in the gasket; monomer to dimer; both purified.
Assay [6] has as its target T1, N-Avi-Biotin-SNM1A (a.a. 698-1040), wild type (human). Kind of assay: SPR; single-cycle; SNM1A immobilised via biotinylated N-terminal Avi tag on a Series S SA surface (~4000 RU); CSB constructs as analytes, 5 or 6 two-fold dilutions from 500 nM or 1 uM; 20 mM HEPES pH 7.5, 150 mM NaCl, 0.5 mM TCEP; 1:1 Langmuir fit; apparent KD; both purified.

Changes are numbered by the printed parent chain. Results are given in words; binding and its absence hold for the method and conditions named. For part of these data: In cells and extracts the contact can be indirect. Some results given as binding are weak or reduced against the parent protein; the word gives no strength. For part of these data: Sequences can lack the tags named with a protein.

On to “CSB C-terminal region lacking the WHD (a.a. 1187-1401) (from UniProt Q03468 1187-1401) (domain or fragment)”, for which the binding entry in assay [1] is reported as “no binding”. As to “CSB found in the co-immunoprecipitates of GFP-SNM1A (from UniProt Q03468 1-1493)”, the binding entry in assay [2], in assay [3] and in assay [4] was “binds” each time. As for “CSB lacking the C-terminal domain (DC-CSB, a.a. 1-1014) (from UniProt Q03468 1-1014) (domain or fragment)”, the binding result in assay [5] was “no binding (tested: 200 nM)”.

Take “CSB-WHD (a.a. 1424-1493) with T1447A substitution (from UniProt Q03468 1424-1493) (domain or fragment)”: the binding result in assay [6] is on record as “no binding”.
